From article PMC9318647, “Human and Bacterial Toll-Interleukin Receptor Domains Exhibit Distinct Dynamic Features and Functions” (Molecules, 2022)
These are yes or no findings as the source states them, for the method shown. Some binding calls cover weakened binding; strength is not graded here. For some of these results: Where a sequence is shown, tags or fusion partners need not be part of it.

Key:
[1] = target: T1, GST-TLR1-TIR chimera (human) (UniProt Q15399); assay: pull-down; 250 μM GST-TLR1 or GST alone incubated with 300 μM untagged TIR domain in 10 mM DTT, diluted to about 200 μM DTT, overnight at 4 °C, loaded on GST beads, eluted with 30 mM glutathione; disulfide-mediated cross-linking; both purified
T1 sequence: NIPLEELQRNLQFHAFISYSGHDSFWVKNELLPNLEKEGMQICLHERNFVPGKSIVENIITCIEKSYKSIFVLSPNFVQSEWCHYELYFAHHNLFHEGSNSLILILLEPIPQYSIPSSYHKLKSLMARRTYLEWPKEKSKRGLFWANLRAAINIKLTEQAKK

[2] = target: TLR2-TIR C713A mutant (human) (UniProt O60603); assay: SEC; analytical Superose-12; 50 mM Na2HPO4, pH 6.5, 150 mM NaCl, 1 mM DTT; TLR1-TIR and TLR2-TIR also after 30 min in 50 mM DTT (homodimers minimized); both purified
[3] = target: T2, human IL-1R8 TIR domain (IL-1R8-TIR), residues 160-310 (human) (UniProt Q6IA17); assay: NMR titration; 15N-labeled IL-1R8-TIR in the presence of TLR1-TIR or TLR2-TIR; chemical shift perturbations; high micromolar concentrations; both purified
T2 sequence: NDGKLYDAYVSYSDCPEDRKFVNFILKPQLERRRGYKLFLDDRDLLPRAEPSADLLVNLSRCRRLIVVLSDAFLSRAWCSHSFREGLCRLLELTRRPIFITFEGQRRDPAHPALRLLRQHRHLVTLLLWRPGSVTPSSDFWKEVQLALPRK

[4] = target: T2, human IL-1R8 TIR domain (IL-1R8-TIR), residues 160-310 (human); assay: SEC; analytical Superose-12; 50 mM Na2HPO4, pH 6.5, 150 mM NaCl, 1 mM DTT; TLR1-TIR and TLR2-TIR also after 30 min in 50 mM DTT (homodimers minimized); both purified
[5] = target: TLR1-TIR C707A mutant (human) (UniProt Q15399); assay: as above

| Molecule | binding [1] | binding [2] | binding [3] | binding [4] | binding [5] |
| --- | --- | --- | --- | --- | --- |
| TLR2-TIR C713A mutant (from UniProt O60603 633-784) (domain or fragment) | binds | no binding |  |  |  |
| human TLR1 TIR domain (TLR1-TIR), residues 625-786, untagged (domain or fragment, UniProt Q15399 625-786, looked up, human TLR1, NCBI NP_003254.2, the entire intracellular TIR region of residues 625-786; Elutes as distinct dimer and monomer peaks on Superose-12; also called untagged TLR1-TIR) NIPLEELQRNLQFHAFISYSGHDSFWVKNELLPNLEKEGMQICLHERNFVPGKSIVENIITCIEKSYKSIFVLSPNFVQSEWCHYELYFAHHNLFHEGSNSLILILLEPIPQYSIPSSYHKLKSLMARRTYLEWPKEKSKRGLFWANLRAAINIKLTEQAKK | binds |  | binds weakly |  |  |
| human TLR2 TIR domain (TLR2-TIR), residues 633-784, untagged (domain or fragment, UniProt O60603 633-784, looked up, human TLR2, NCBI NP_001305716.1, the entire intracellular TIR region of residues 633-784; 15N-labelled in the NMR experiments; Elutes as distinct dimer and monomer peaks on Superose-12; also called 15N-TLR2-TIR) KAPSRNICYDAFVSYSERDAYWVENLMVQELENFNPPFKLCLHKRDFIPGKWIIDNIIDSIEKSHKTVFVLSENFVKSEWCKYELDFSHFRLFDENNDAAILILLEPIEKKAIPQRFCKLRKIMNTKTYLEWPMDEAQREGFWVNLRAAIKS | binds |  | binds weakly |  |  |
| human IL-1R8 TIR domain (IL-1R8-TIR), residues 160-310 (domain or fragment, UniProt Q6IA17 160-310) NDGKLYDAYVSYSDCPEDRKFVNFILKPQLERRRGYKLFLDDRDLLPRAEPSADLLVNLSRCRRLIVVLSDAFLSRAWCSHSFREGLCRLLELTRRPIFITFEGQRRDPAHPALRLLRQHRHLVTLLLWRPGSVTPSSDFWKEVQLALPRK | binds |  |  | no binding |  |
| TLR1-TIR C707A mutant (domain or fragment, UniProt Q15399 625-786) NIPLEELQRNLQFHAFISYSGHDSFWVKNELLPNLEKEGMQICLHERNFVPGKSIVENIITCIEKSYKSIFVLSPNFVQSEWAHYELYFAHHNLFHEGSNSLILILLEPIPQYSIPSSYHKLKSLMARRTYLEWPKEKSKRGLFWANLRAAINIKLTEQAKK | binds |  |  |  | no binding |
